Results taken from a compilation of properties of binary mixtures (doi:10.1021/jp802540j).
Some of these densities may be calculated back from excess volumes.

Assay: xn = mol fraction of the nth substance listed
Details: 100 kPa

CCCC[n+]1ccn(C)c1.O=[N+]([O-])[O-] + O
mass density [kg/m3]
Details	292 K	302 K	312 K	322 K	332 K	342 K
x2 = 0	1157.3	1150.8	1144.5	1138.2	1132	1126
x2 = 0.1305	1154.7	1148.1	1141.7	–	1129.2	1123.1
x2 = 0.1946	–	–	1139.9	–	1127.4	–
x2 = 0.2775	1150	1143.2	1136.9	1130.5	–	1118.1

C[n+]1ccn(CCCO)c1.O=[N+]([O-])[O-] + O
mass density [kg/m3]
Details	292 K	302 K	312 K	322 K	332 K	342 K
x2 = 0	1273.4	–	1260.4	1254.4	1248.6	1242.7
x2 = 0.1008	1270.3	1263.7	1257.2	1251.1	1245	–
x2 = 0.1462	1268.3	1261.6	1255.3	1249	1242.8	1236.9
x2 = 0.2121	1264.8	–	1251.6	1245.5	1239.4	–
x2 = 0.2931	–	1253.3	–	1240.8	1234.8	1228.7
